About 14,000 (4.5%) of roughly 310,000 compounds showed an effect of 50% or more. Effects have a minus sign here. The list shows a part of the results.
The compounds below were run against human ether-à-go-go-related gene (hERG) potassium channel (human, UniProt Q12809) (assay: primary screen, population patch clamp on CHO cells stably expressing hERG).
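Note: peak tail current of the secondary pulse compared with the same well before compound.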

Sequence of human ether-à-go-go-related gene (hERG) potassium channel (Q12809 whole entry, looked up): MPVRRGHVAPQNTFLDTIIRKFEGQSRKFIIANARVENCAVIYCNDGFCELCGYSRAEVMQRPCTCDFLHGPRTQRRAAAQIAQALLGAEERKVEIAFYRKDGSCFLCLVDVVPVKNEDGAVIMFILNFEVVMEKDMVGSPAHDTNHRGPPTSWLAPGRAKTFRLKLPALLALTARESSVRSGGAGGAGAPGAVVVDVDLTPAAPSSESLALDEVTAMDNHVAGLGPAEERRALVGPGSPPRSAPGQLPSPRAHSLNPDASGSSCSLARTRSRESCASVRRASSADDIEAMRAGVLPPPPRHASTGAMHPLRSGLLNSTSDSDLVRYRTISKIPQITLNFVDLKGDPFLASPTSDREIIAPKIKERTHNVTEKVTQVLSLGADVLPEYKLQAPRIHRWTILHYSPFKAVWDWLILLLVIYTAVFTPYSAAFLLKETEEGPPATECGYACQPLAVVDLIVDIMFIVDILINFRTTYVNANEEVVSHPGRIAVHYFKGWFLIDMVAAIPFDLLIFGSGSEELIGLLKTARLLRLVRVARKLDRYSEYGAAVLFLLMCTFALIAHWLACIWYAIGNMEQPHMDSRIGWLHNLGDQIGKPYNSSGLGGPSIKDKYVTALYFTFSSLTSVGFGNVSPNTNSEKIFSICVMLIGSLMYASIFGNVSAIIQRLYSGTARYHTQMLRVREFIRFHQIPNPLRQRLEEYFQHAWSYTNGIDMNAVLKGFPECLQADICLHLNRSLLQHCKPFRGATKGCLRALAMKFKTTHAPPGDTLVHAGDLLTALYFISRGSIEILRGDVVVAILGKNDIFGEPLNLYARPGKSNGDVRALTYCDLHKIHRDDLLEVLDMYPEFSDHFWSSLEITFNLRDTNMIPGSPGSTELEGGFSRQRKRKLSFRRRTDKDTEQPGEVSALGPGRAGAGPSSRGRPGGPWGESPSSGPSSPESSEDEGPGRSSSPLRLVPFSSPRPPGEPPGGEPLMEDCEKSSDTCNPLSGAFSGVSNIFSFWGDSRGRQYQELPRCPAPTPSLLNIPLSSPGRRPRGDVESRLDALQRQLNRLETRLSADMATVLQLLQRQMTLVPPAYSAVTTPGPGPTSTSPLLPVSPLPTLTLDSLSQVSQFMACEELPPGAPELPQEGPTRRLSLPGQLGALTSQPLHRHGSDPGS

Row | SMILES | hERG current change (%, negative = inhibition) at 10uM
1 | Cc1cccc(NC(=O)c2ccc(Cl)nc2)n1 | 24.8%
2 | CC(=O)c1ccccc1C(=O)N1CCCC(CNC(=O)c2ccccc2Cl)C1 (stereo not shown) | 9.64%
3 | Cc1c(C(=O)N2CCN(c3cccc(Cl)c3)CC2)cccc1[N+](=O)[O-] | -42.5%
4 | Cc1nc2cc(-c3ccccc3)sc2c(=O)n1N | 14.5%
5 | CCOc1ccc(S(=O)(=O)N2CCOCC2)cc1[N+](=O)[O-] | -52.2%
6 | CC(C)Nc1ccccc1 | 12.2%
7 | COC(=O)c1ccn(CC(=O)NC2CCCCC2)n1 | 16.5%
8 | O=C(NCCN1CCOCC1)c1cccc(S(=O)(=O)N2CCCC2)c1 | 6.43%
9 | O=C(O)COCC(=O)N1CCN(C2c3ccccc3-c3ccccc32)CC1 | 8.11%
10 | O=C(Oc1cccc(NC(=O)c2ccco2)c1)c1cccc(S(=O)(=O)N2CCCCC2)c1 | 6.51%
11 | CCOc1ccc(/C=N/NC(=O)C(=O)NCc2ccco2)cc1 | -0.455%
12 | CCOC(=O)N1CCN(C(=O)CSc2nc3c(c(=O)n2-c2ccccc2OC)SCC3)CC1 | -8.93%
13 | COc1cc2c(c(OC)c1OC)-c1ccc(NC(=O)c3ccc(F)cc3)c(=O)cc1[C@@H](NC(C)=O)CC2 | -17.1%
14 | CC(=O)c1cccc(NC(=S)NCc2ccccc2)c1 | 12%
15 | C[NH+]1CCC2(CC1)C(C#N)=C(N)NC([S-])=C2C#N | -2.36%
16 | COc1ccc(-c2nn(C)c3sc(C(=O)NCc4ccco4)cc23)cc1OC | 12.5%
17 | COc1ccc(C(=O)NC(=S)NC2CCSC2=O)cc1 (stereo not shown) | -22%
18 | OCC(O)CN1CCCC1 (stereo not shown) | 16.6%
19 | Cc1ccc(-n2ncc3c2CC(C)(C)CC3NC(=O)CCc2ccncc2)cc1 (stereo not shown) | -72.2%
20 | FC(F)(F)c1cc(Oc2ccc(Cl)cc2)nc(-c2ccccn2)n1 | 22.9%
21 | O=C(NC1CCN(C(=O)C2CCCCC2)CC1)c1ccccc1 | 7.98%
22 | CCc1nnc(NC(=S)Nc2ccccc2)s1 | 15.9%
23 | COc1ccc(Nc2nc3ccccc3nc2NS(=O)(=O)c2cccs2)c(OC)c1 | 8.29%

Row | SMILES | hERG current change (%, negative = inhibition) at 10uM
24 | COc1ccc(C)cc1-n1nnnc1SC/C(O)=C(\C#N)c1nc2ccccc2[nH]1 | 9.03%
25 | CCN(CC)C(=O)C(C)N(C#N)c1nc(C)cc(C)n1 (stereo not shown) | -0.693%
26 | CC(=O)Nc1ccc(S(=O)(=O)Nc2ccc(F)c([N+](=O)[O-])c2)cc1 | 14.9%
27 | Cc1ccc(NC(=O)Nc2ccc3c(c2)OCO3)nc1 | 13.1%
28 | COCC(=O)Nc1cc(C(=O)OC)cc(C(=O)OC)c1 | 13%
29 | CN(CCOc1ccccc1)CC(O)COCc1ccccc1F (stereo not shown) | -39.5%
30 | O=C(Nc1ccccc1-c1ccccc1)c1ccccc1 | 13.2%
31 | Cc1c(C#N)c(N=CN(C)C)c(C(=O)c2ccc(Br)cc2)n1-c1ccccc1 | -13.4%
32 | CC(C)C(OC(=O)c1ccco1)C(=O)NCc1ccco1 (stereo not shown) | 11.5%
33 | CCOC(=O)C1CCCN(C(=O)c2cn(CC)c3ccc(S(=O)(=O)N4CCCC4)cc3c2=O)C1 (stereo not shown) | -8.41%
34 | COCCn1nnnc1CN(CCc1ccccc1)Cc1cc2ccc(C)cc2[nH]c1=O | -57.2%
35 | Cc1ccc(C(=O)NCCc2ccc(F)cc2)s1 | 14.6%
36 | CC(c1ccccc1)n1c(Br)nc2c1c(=O)[nH]c(=O)n2C (stereo not shown) | 10.3%
37 | CC(=O)Nc1nnc(SCC(=O)Nc2nc(C)cs2)s1 | 10.3%
38 | N/C(=N\OC(=O)COc1ccc2ccccc2c1)c1cccnc1 | -1.4%
39 | CCC(=O)N1CCc2nc(-c3ccccc3)sc2C1 | 0.762%
40 | CC(C)CN1CCC(=O)N([C@H](CO)c2ccccc2)CC1 | 9.33%
41 | O=S(=O)(Nc1c(O)ccc2ccccc12)c1cccc2ccccc12 | 6.79%
42 | Br.C1CN=C(NC23CC4CC(CC(C4)C2)C3)C1 | 0.557%
43 | Cc1csc(N(C(=O)Cc2ccccc2F)c2ccccc2)n1 | -6.87%
44 | COc1ccc(Br)cc1/C=C/C(=O)NCC(=O)O | 23.1%
45 | O=C1CN=C(c2ccc(F)cc2)c2oc3ccccc3c2N1 | 2.47%
46 | CN1CCc2ccccc2C1C1CCNCC1 (stereo not shown) | 13.7%

From paper PMC4336329 (PLoS ONE, 2015)
